The results in this text go back to the RNAGym collection of RNA variant scans (doi:10.1101/gad.245936.114).

B1: tRNA (parent)
chain: CUCUCGGUAGCCAAGUUGGUUUAAGGCGCAAGACUUUAAUUUAUCACUACGAAAUCUUGAGAUCGGGCGUUCGACUCGCCCCCGGGAGAUUUUUUCCUCGAGCAA

Variants at the floor of the assay are shown more often than the library holds them.

The variants in this data set derive from B1. Briefly: nonsense suppression (GFP-seq) (ratio to wild type); higher = more function; SUP4oc tRNA, yeast GFP reporter sort-seq. In a few lines: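 To measure nonsense suppression, tRNA variants from a library carrying ~3% random mutations were integrated into the yeast genome alongside RFP and a GFP ochre reporter under galactose control. Growth took place in raffinose/galactose medium supplemented with 80 mg/L adenine, followed by sorting into GFP/RFP bins and Illumina sequencing of each bin (phred ≥30). For each variant with ≥100 reads and ≥30 cells, the bin median GFP/RFP values were weighted by its estimated cell share per bin and referenced to the unmutated parent tRNA.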
Regarding G65C G88C, the nonsense suppression is ≤ 0.026.

In the case of U22G G73C A74U, the nonsense suppression was ≤ 0.026.

In the case of C1G U2G G85A G86C, the nonsense suppression was ≤ 0.026.

As for U2G C12A, the nonsense suppression is ≤ 0.026.

As to U58A G86A G88C, the nonsense suppression was ≤ 0.026.

As to U17A U58G G59C U71C, the nonsense suppression was ≤ 0.026.

On to C3G A13U G18A G19C U20A G61U C80G, for which the nonsense suppression is ≤ 0.026.

Turning to G32A A60C G65U, the nonsense suppression was ≤ 0.026.

Consider G15U U70A G85U, for which the nonsense suppression was ≤ 0.026.

On to U8G C12U A31U C81A, for which the nonsense suppression was ≤ 0.026.

For the variant U16A A62U, the nonsense suppression is ≤ 0.026.

A13U U35C: the nonsense suppression is ≤ 0.026.

As to U4G C5G G26C G28U, the nonsense suppression is ≤ 0.026.

As for A62G C83A, the nonsense suppression is ≤ 0.026.

On to C11A G15U G18A, for which the nonsense suppression is ≤ 0.026.

In the case of C5G A14G G73U, the nonsense suppression is ≤ 0.026.

As for U2G G26A C77U, the nonsense suppression was ≤ 0.026.

On to G6U G84A G88C, for which the nonsense suppression was ≤ 0.026.

A23G A30G U63A G84C: the nonsense suppression was ≤ 0.026.

In the case of C1G C29A, the nonsense suppression is ≤ 0.026.

Turning to C1G C29G, the nonsense suppression is ≤ 0.026.

As for C56A G73C, the nonsense suppression was ≤ 0.026.

Consider U58G G59U G65A, for which the nonsense suppression was ≤ 0.026.

Turning to G6A U8G C12U A33C, the nonsense suppression was ≤ 0.026.

As to C29G U63A, the nonsense suppression is ≤ 0.026.

Consider C27G C56G, for which the nonsense suppression was ≤ 0.026.

Take G6A U21C: the nonsense suppression is ≤ 0.026.

As for G6A U21A, the nonsense suppression is ≤ 0.026.

For C12U A14U A62C, the nonsense suppression is ≤ 0.026.

Consider C11A G28C G67A, for which the nonsense suppression is ≤ 0.026.

Take C12U G15C G61A: the nonsense suppression is ≤ 0.026.

As for U2A A60C C68G, the nonsense suppression was ≤ 0.026.

C5U U58G: the nonsense suppression is ≤ 0.026.

As to C1U A60G, the nonsense suppression was ≤ 0.026.

A9C A14U G19U: the nonsense suppression was ≤ 0.026.

As to C29U G86C, the nonsense suppression was found to be 0.0331.

On to C29G, for which the nonsense suppression is ≤ 0.026.

Take C5G A14U: the nonsense suppression is ≤ 0.026.

In the case of C3U G26C C64A, the nonsense suppression is ≤ 0.026.

Regarding G7C U55C, the nonsense suppression worked out at 0.0823.

As for G6A C81A, the nonsense suppression was ≤ 0.026.

As for C27U A31U G32U C34U A87G, the nonsense suppression was ≤ 0.026.

On to C3A U57C C68G, for which the nonsense suppression is ≤ 0.026.

With A23C G85C G88A, the nonsense suppression is ≤ 0.026.

As to G28U U58G C81G, the nonsense suppression is ≤ 0.026.

Consider C34G U57A, for which the nonsense suppression is ≤ 0.026.

Turning to C1A G73C, the nonsense suppression is ≤ 0.026.

In the case of A14C G65C C77G, the nonsense suppression is ≤ 0.026.

For C11G A31G U55A, the nonsense suppression is ≤ 0.026.

As to A13C U17A A31G, the nonsense suppression was found to be 0.849.

On to G32C C56A, for which the nonsense suppression was ≤ 0.026.

With G6C U58G A60C, the nonsense suppression is ≤ 0.026.

As to U2G G32U, the nonsense suppression was ≤ 0.026.

As for A13G A24G A62C C77G, the nonsense suppression was ≤ 0.026.

In the case of C3U A13G G26C G65U G69C, the nonsense suppression was ≤ 0.026.

Take A14U G66C: the nonsense suppression was ≤ 0.026.

On to C3U A30U, for which the nonsense suppression is ≤ 0.026.

Regarding C11U U17A C34G A60G, the nonsense suppression is ≤ 0.026.

Turning to C5G G59U U70C C79U, the nonsense suppression is ≤ 0.026.

As to G10A U58A A60U A62G C72A, the nonsense suppression is ≤ 0.026.

Regarding U22G A31C U76A, the nonsense suppression is ≤ 0.026.

Turning to G67C U71A, the nonsense suppression was ≤ 0.026.

For G10C G15U U20C U57G U58G G65C G78A, the nonsense suppression was ≤ 0.026.

Turning to G32A G61A A74U G78A, the nonsense suppression was ≤ 0.026.

Take G6U G61C C82U: the nonsense suppression is ≤ 0.026.

As to U35G U55A U58A, the nonsense suppression is ≤ 0.026.

For the variant G59C C72A G85U, the nonsense suppression was ≤ 0.026.

C27A G59C: the nonsense suppression is ≤ 0.026.

Regarding C11G U35A, the nonsense suppression was ≤ 0.026.

For C1G A31U U70A G84U, the nonsense suppression was ≤ 0.026.

In the case of C12U U63A C81A, the nonsense suppression is ≤ 0.026.

G67U U71A G78C: the nonsense suppression is ≤ 0.026.

Consider U4G A33C, for which the nonsense suppression is ≤ 0.026.

Consider C5G U70A C77A, for which the nonsense suppression was ≤ 0.026.

With U16A A24G G28U U71C, the nonsense suppression was ≤ 0.026.

In the case of G25A U63C C72G, the nonsense suppression was ≤ 0.026.

As to C3U G6U G61U C79G, the nonsense suppression is ≤ 0.026.

As to G32A U57A C64U, the nonsense suppression is ≤ 0.026.

On to C3G G25U G85U G88A, for which the nonsense suppression was ≤ 0.026.

As to G18U C72G, the nonsense suppression is ≤ 0.026.

On to G26C C29A G84A, for which the nonsense suppression was ≤ 0.026.

With C12G A14C A24G G32A U57A, the nonsense suppression is ≤ 0.026.

For U8C C64A, the nonsense suppression was ≤ 0.026.

Regarding G25U U63C, the nonsense suppression was ≤ 0.026.
